For 56 molecules, relative growth results are on record in the supplement of paper PMC9446081.

Each structure is given as a SMILES string. Out of some 39,000 compounds screened, about 220 (0.56%) showed activity. This is one part of the list.
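Also: static incubation at 37 °C against the wild-type strain, values averaged over two biological replicates.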

The subject of this test is Escherichia coli K-12 BW25113. Kind of test: relative growth (OD600 normalised to plate interquartile mean) (fraction); higher = less growth inhibition, active = 0.2 or less. The settings on record: 50 µM; LB; incubation time: overnight (16-24 h).
For the molecule `C[C@H]1CN([C@@H](C)CO)S(=O)(=O)c2ccc(Br)cc2O[C@H]1CN(C)C(=O)CCN1CCCCC1`, the relative growth was inactive: 1.01.

As to `C[C@@H]1CCCCO[C@H](CN(C)C(=O)Nc2cccc3ccccc23)[C@H](C)CN([C@H](C)CO)C(=O)c2cc(N(C)C)ccc2O1`, the relative growth was inactive: 1.02.

As for `COCCCNC(=O)[C@@H]1c2ccccc2C(=O)N(Cc2cc(C(F)(F)F)cc(C(F)(F)F)c2)[C@H]1c1ccc(CO)cc1`, the relative growth is inactive: 0.859.

As to `CS(=O)(=O)N1[C@@H]2Cn3c(ccc(-c4ccc(F)cc4)c3=O)[C@H]1[C@@H](C(=O)N1CCOCC1)[C@@H]2CO`, the relative growth was inactive: 0.99.

Take `CO[C@@H]1CN(C)C(=O)c2cc(NS(C)(=O)=O)ccc2OC[C@@H](C)N(C(=O)C2CCCCC2)C[C@H]1C`: the relative growth is inactive: 1.

`C[C@@H]1CN([C@H](C)CO)C(=O)c2cc(NC(=O)C3CC3)ccc2O[C@H]1CN(C)S(=O)(=O)c1ccc(Cl)cc1`: the relative growth was inactive: 0.991.

For `C[C@@H]1CN([C@@H](C)CO)C(=O)c2cc(NC(=O)Nc3ccc(F)cc3)ccc2O[C@H]1CN(C)C(=O)Nc1cccc2ccccc12`, the relative growth was inactive: 1.01.

As to `Cc1ccc(S(=O)(=O)Nc2ccc3c(c2)C(=O)N([C@H](C)CO)C[C@H](C)[C@@H](CN(C)Cc2ccc(C(F)(F)F)cc2)OCCCC[C@H](C)O3)cc1`, the relative growth is inactive: 1.05.

With `C[C@H](CO)N1C[C@H](C)[C@@H](CN(C)S(=O)(=O)c2cn(C)cn2)Oc2cc(C#Cc3ccccc3)ccc2S1(=O)=O`, the relative growth is inactive: 0.994.

In the case of `CC(C)(C)[S@](=O)N1Cc2cc(C(=O)NCCN3CCCCC3)nc(-c3cccc(-c4cccc(C#N)c4)c3)c2[C@@H]1CCO`, the relative growth is inactive: 0.986.

Turning to `C[C@@H]1CCCCO[C@H](CN(C)Cc2ccc3c(c2)OCO3)[C@@H](C)CN([C@@H](C)CO)C(=O)c2cc(NC(=O)c3ccccc3)ccc2O1`, the relative growth was inactive: 1.03.

For `C[C@@H]1CCCCO[C@@H](CN(C)S(=O)(=O)c2cn(C)cn2)[C@@H](C)CN([C@H](C)CO)C(=O)c2cc(NC(=O)CCCN(C)C)ccc2O1`, the relative growth was inactive: 1.01.

With `C[C@H](CO)N1C[C@H](C)[C@@H](CN(C)S(=O)(=O)c2ccc(F)cc2)Oc2ccc(NC(=O)Nc3cccc4ccccc34)cc2CC1=O`, the relative growth was inactive: 1.01.

Take `C[C@@H]1CN([C@@H](C)CO)C(=O)CCCn2cc(nn2)CO[C@H]1CN(C)S(=O)(=O)c1ccc(C#N)cc1`: the relative growth is inactive: 1.01.

As for `C[C@@H]1CCCCO[C@@H](CN(C)C(=O)Nc2ccccc2)[C@@H](C)CN([C@H](C)CO)C(=O)c2cc(NC(=O)CCCCCC(=O)Nc3ccccc3N)ccc2O1`, the relative growth is inactive: 1.01.

As to `C/C=C1\NC(=O)[C@H]2CSSCC/C=C/[C@H](CC(=O)N[C@H](C(C)C)C(=O)N2)OC(=O)[C@H](C(C)C)NC1=O`, the relative growth was inactive: 1.05.

For `COCC#Cc1ccc2c(c1)O[C@H](CN(C)C(=O)Nc1ccccc1F)[C@@H](C)CN([C@H](C)CO)S2(=O)=O`, the relative growth is inactive: 0.966.

On to `COc1ccc(S(=O)(=O)N(C)C[C@H]2Oc3ccc(NS(C)(=O)=O)cc3CC(=O)N([C@H](C)CO)C[C@H]2C)cc1`, for which the relative growth was inactive: 0.971.

`CC(C)NC(=O)N(C)C[C@@H]1OCCCC[C@H](C)Oc2ccc(NS(C)(=O)=O)cc2C(=O)N([C@H](C)CO)C[C@@H]1C`: the relative growth was inactive: 0.902.

Consider `Cc1ccc(S(=O)(=O)N(C)C[C@@H]2OCCCC[C@H](C)Oc3ccc(NC(=O)Nc4cccc5ccccc45)cc3C(=O)N([C@H](C)CO)C[C@@H]2C)cc1`, for which the relative growth was inactive: 0.968.

Turning to `C[C@H](CO)N1C[C@H](C)[C@H](CN(C)S(=O)(=O)c2ccccc2F)Oc2ncc(C#Cc3cccnc3)cc2C1=O`, the relative growth is inactive: 0.974.

As for `C[C@@H]1CCCCO[C@H](CN(C)S(=O)(=O)c2ccccc2)[C@H](C)CN([C@H](C)CO)C(=O)c2cc(NC(=O)Nc3ccccc3)ccc2O1`, the relative growth was inactive: 1.02.

For the molecule `NS(=O)(=O)c1ccc(Cl)c2nonc12`, the relative growth was inactive: 1.

On to `CNC(=O)C[C@H]1CC[C@H]2[C@@H](COC[C@@H](O)CN2C(=O)Nc2ccc3c(c2)OCO3)O1`, for which the relative growth was inactive: 0.981.

As to `COc1ccc(S(=O)(=O)Nc2ccc3c(c2)CC(=O)N([C@H](C)CO)C[C@H](C)[C@H](CN(C)S(=O)(=O)c2ccc(F)cc2)O3)cc1`, the relative growth is inactive: 0.932.

Consider `C[C@@H]1CCCCO[C@H](CN(C)C(=O)Cc2ccccc2)[C@H](C)CN([C@@H](C)CO)C(=O)c2cc(NS(=O)(=O)c3ccc(F)cc3)ccc2O1`, for which the relative growth was inactive: 1.

On to `CCCNC(=O)N(C)C[C@@H]1Oc2ncc(-c3ccc(C(=O)N(C)C)cc3)cc2C(=O)N([C@H](C)CO)C[C@H]1C`, for which the relative growth was inactive: 1.01.

Regarding `C[C@@H]1CCCCO[C@H](CN(C)S(=O)(=O)c2ccc(F)cc2)[C@H](C)CN([C@H](C)CO)C(=O)c2cc(NS(=O)(=O)c3ccc(Cl)cc3)ccc2O1`, the relative growth was inactive: 1.01.

Regarding `Cc1ccc(S(=O)(=O)N(C)C[C@H]2Oc3ccc(NC(=O)C4CC4)cc3C(=O)N([C@@H](C)CO)C[C@H]2C)cc1`, the relative growth was inactive: 1.01.

Take `C[C@@H]1CN([C@@H](C)CO)C(=O)c2cc(NS(=O)(=O)c3ccc(F)cc3)ccc2O[C@H]1CN(C)C(=O)Nc1cccc2ccccc12`: the relative growth was inactive: 1.01.

Turning to `C=CCC[C@@H](Cc1ccc(F)cc1)C(=O)OC[C@H](Cc1c[nH]c2ccccc12)NC(=O)[C@@H](CC=C)CC(=O)N(CCO)Cc1ccccc1`, the relative growth is inactive: 1.06.

For the molecule `NCC[C@@H]1CC[C@H](NC(=O)C2CC2)[C@@H](CO)O1`, the relative growth was inactive: 1.01.

With `C[C@@H]1CN([C@@H](C)CO)C(=O)c2cc(NC(=O)Cc3cn(C)c4ccccc34)ccc2O[C@@H]1CN(C)Cc1ccc(Cl)c(Cl)c1`, the relative growth was inactive: 0.996.

For `C[C@@H]1CN([C@H](C)CO)C(=O)c2cccc(NC(=O)c3ccncc3)c2O[C@@H]1CN(C)S(=O)(=O)c1ccc(F)cc1`, the relative growth was inactive: 1.

Consider `C[C@@H]1CCCCO[C@@H](CN(C)Cc2ccc(Cl)c(Cl)c2)[C@@H](C)CN([C@H](C)CO)C(=O)c2cc(N(C)C)ccc2O1`, for which the relative growth was inactive: 1.02.

Consider `COc1ccccc1NC(=O)N(C)C[C@H]1Oc2ncc(C#CCN(C)C)cc2C(=O)N([C@H](C)CO)C[C@@H]1C`, for which the relative growth was inactive: 0.977.

In the case of `COc1ccc([Si](C)(C)[C@H]2[C@H](CC(=O)N(CCO)Cc3ccccc3)O[C@@]3(C(=O)N(Cc4ccc(N5CCC5=O)cc4)c4ccccc43)[C@@H]2C)cc1`, the relative growth was inactive: 0.869.

Consider `C[C@H]1CCCCO[C@H](CN(C)C(=O)Nc2cccc3ccccc23)[C@@H](C)CN([C@@H](C)CO)C(=O)c2cc(NC(=O)NC3CCCCC3)ccc2O1`, for which the relative growth was inactive: 1.03.

`COc1ccc(S(=O)(=O)N(C)C[C@@H]2OCCCC[C@H](C)Oc3ccc(NC(=O)NC4CCCCC4)cc3C(=O)N([C@H](C)CO)C[C@H]2C)cc1`: the relative growth is inactive: 1.03.

Consider `C[C@H](CO)N1C[C@H](C)[C@@H](CN(C)C(=O)Nc2ccc(F)cc2)Oc2c(NC(=O)CCCCCC(=O)Nc3ccccc3N)cccc2C1=O`, for which the relative growth was inactive: 0.995.

Consider `C[C@H]1CN([C@@H](C)CO)S(=O)(=O)c2ccc(C#CCN(C)C)cc2O[C@H]1CN(C)C`, for which the relative growth was inactive: 0.981.

Take `C[C@@H]1CN([C@@H](C)CO)C(=O)CCCn2nncc2CO[C@@H]1CN(C)S(=O)(=O)c1ccc2ccccc2c1`: the relative growth is inactive: 1.01.

On to `C[C@H](CO)N1C[C@H](C)[C@@H](CN(C)S(C)(=O)=O)Oc2ccc(NC(=O)CCCCCC(=O)Nc3ccccc3N)cc2CC1=O`, for which the relative growth was inactive: 0.999.

On to `N[C@@H](CC(=O)O)c1cccc([N+](=O)[O-])c1`, for which the relative growth is inactive: 1.03.

Regarding `C[C@@H]1CCCCO[C@H](CN(C)CC2CC2)[C@H](C)CN([C@@H](C)CO)C(=O)c2cc(NC(=O)Nc3ccc4c(c3)OCO4)ccc2O1`, the relative growth was inactive: 0.974.

As to `C[C@@H]1CCCCO[C@H](CN(C)C(=O)C2CCCCC2)[C@@H](C)CN([C@H](C)CO)C(=O)c2cc(NC(=O)Nc3ccc(F)cc3)ccc2O1`, the relative growth is inactive: 0.998.

As to `C[C@H](CO)N1C[C@H](C)[C@H](CN(C)C(=O)Nc2ccc3c(c2)OCO3)OCCCC[C@H](C)Oc2ccc(NC(=O)CCCCCC(=O)Nc3ccccc3N)cc2C1=O`, the relative growth was inactive: 0.995.

As for `COc1ccc(NC(=O)Nc2ccc3c(c2)CC(=O)N([C@@H](C)CO)C[C@H](C)[C@@H](CN(C)C(=O)Nc2ccc(C(F)(F)F)cc2)O3)cc1`, the relative growth was inactive: 0.993.

Take `COc1ccc(Nc2ccc(-c3ccncc3)s2)cc1Cl`: the relative growth was inactive: 1.04.

Turning to `O=C(O)CCC(=O)C(=O)O`, the relative growth was inactive: 0.987.

For the molecule `Cc1noc(C)c1NC(=O)N(C)C[C@H]1OCCCC[C@H](C)Oc2ccc(NS(=O)(=O)c3cccs3)cc2C(=O)N([C@@H](C)CO)C[C@@H]1C`, the relative growth was inactive: 0.972.

Consider `COc1cc(CN2C(=O)[C@@H]3[C@H]4C(=O)O[C@@H](c5ccccc5)[C@H](C)N(C)C(=O)CC/C=C\CN(Cc5ccccc5)C(=O)[C@H]2[C@]32C=C[C@@H]4O2)ccc1O[SiH](C(C)C)C(C)C`, for which the relative growth was inactive: 1.04.

Consider `COc1ccc(S(=O)(=O)N(C)C[C@H]2OCCCC[C@@H](C)Oc3ccc(NC(=O)Nc4ccccc4)cc3C(=O)N([C@@H](C)CO)C[C@H]2C)cc1`, for which the relative growth was inactive: 1.02.

As to `CCOC(=O)c1ncn2c1C(=O)OC2(C)C`, the relative growth is inactive: 0.987.

For `C[C@H]1CN([C@@H](C)CO)C(=O)c2cccc(NC(=O)c3ccc(-c4nccs4)cc3)c2O[C@H]1CN(C)Cc1ccc2c(c1)OCO2`, the relative growth was inactive: 1.01.

For `C[C@H](CO)N1C[C@H](C)[C@@H](CN(C)S(=O)(=O)c2ccc(Oc3ccccc3)cc2)OCc2cnnn2CCCC1=O`, the relative growth was inactive: 0.992.
